PubChem BioAssay AID1671194 (National Center for Advancing Translational Sciences (NCATS), 2021)
In all, about 140,000 compounds went through this assay and about 240 (0.17%) were called active. Inconclusive means that the source gave no clear call. Such entries were picked first, then a sample of the others. The call rests on the fitted dose curve; in most records, active means well fitted inhibition curve with a large enough effect; inconclusive means small, poorly fitted or top-dose-only effect; inactive means no such curve, though single readings can be large or run the other way. Potencies of inconclusive entries are doubtful fits and often do not repeat.

test: Primary qHTS assay for inhibitors of alpha-synuclein gene (SNCA) expression; conditions: HEK-293 SNCA-luciferase knock-in, luminescence, 24 h; series mostly up to 57.2 µM; further: nearly all actives have a fitted effect of over 45% in size
Excerpt: Assay Submitter (PI): Daniel R. Scoles Ph.D.
Department of Neurology, University of Utah, Salt Lake City, Utah
Accumulation of alpha-synuclein is a main underlying pathological feature of Parkinson's disease (PD) and alpha-synucleinopathies, for which lowering expression of the alpha-synuclein gene (SNCA) is a potential therapeutic avenue. Using a cell-based luciferase reporter of SNCA expression we performed a quantitative high throughput screen (qHTS) of 155,885 compounds in dose response. The screening assay was generated using genome editing to insert the luciferase gene downstream and in frame of the SNCA gene in HEK-293 cells (1). A viability counterscreen using GF-AFC was used to eliminate cytotoxic and false positive compounds. After in silico analysis (clustering, removal of frequent hitter nuisance chemotypes), inhibitor compounds from the primary screen were selected for follow up and re-tested at 11-doses in the SNCA-luc cells (luciferase and GF-AFC confirmation), and in CMV-luc expressing cell line to flag general transcriptional repressors.
Described herein are the results of the primary screen for SNCA inhibitors; decrease in luciferase signal (inhibition of the SNCA gene expression) is the desired output for this assay.
1. Dansithong, W., Paul, S., Scoles, D. R., Pulst, S. M., and Huynh, D. P. (2015) Generation of SNCA Cell Models Using Zinc Finger Nuclease (ZFN) Technology for Efficient High-Throughput Drug Screening. PLoS ONE 10, e0136930.
SEQUENCE No. (e.g., 1, 2, 3, etc.); […] (e.g., Cells, Incubation, Reagent, etc.); VALUE; DESCRIPTION
1; Cells; 4 uL; Dispense 1500 HEK-293-SNCA-luc cells/well into Greiner 1536-well white / solid bottom tissue culture treated plate. The plate was covered with metal lids with gas-exchange holes.
2; Incubate; 24 hours; Incubate at 37C, 5% CO2, 95% RH.
3; Compounds; 23 nL; Compounds and controls were transferred via a Kalypsys Pin Tool (Wako USA) equipped with a 1536-slotted pin array. The plate was covered with metal lids with gas-exchange holes.
4; Incubate; 24 hours; Incubate at 37C, 5% CO2, 95% RH.
5; Dispense; 1 uL; Dispense Gly-Phe-7-amino-4-trifluoromethylcoumarin (GF-AFC, prepared at 125 uM in PBS) was added. The plate was covered with metal lids with gas-exchange holes.
6; Incubate; 30 min; Incubate at 37C, 5% CO2.
7; Detector; Fluorescence; Measure fluorescence with ViewLux microplate reader (PerkinElmer) equipped with 405/10 excitation and 540/25 emission filters.
8; Dispense; 3 uL; Dispense ONE-Glo ([…]) lucifase detection reagent was added to each well. Plates were covered with metal lids with gas-exchange holes.
9; Incubate; 15 min; Incubate at room temperature.
10; Detector; Luminescence; Measure luminescence with ViewLux microplate reader (PerkinElmer) equipped with clear filters.
NOTES (numbers refer to sequence above)
1; HEK-293-SNCA-luc were cultured and suspended in phenol-red free DMEM (4.5 g/L glucose, 25 mM HEPES, cat #21063 (Thermo)).
3; Compounds were added to the assay plate in an 11-point intra plate dose response, 1:3 titration in DMSO with a final concentration range of […]. Vehicle-only plates, with DMSO being pin-transferred to every well, were inserted at the beginning of screening runs to confirm expected assay performance. Activity was normalized to wells containing medium only (-100% activity, full inhibition) and SNCA-luc cells treated with DMSO vehicle control (0% activity), contained on the same plate as test samples.
10; Signals were analyzed, and dose-response curves were fit using the Hill equation. Compounds in curve classes -1.1, -1.2, -2.1, -2.2 in the SNCA-luc assay were considered active. Compounds were eliminated from further consideration if also active (curve class -1.1, -1.2, -1.3, -1.4, -2.1, -2.2, -2.3, -2.4) in the GF-AFC cytotoxicity assay.
Potency means the concentration at half of the fitted maximal effect; tags describe the fitted curve by direction and shape.

Row | Compound | Potency
1 | O=C(Cc1ccccc1)N1CCC2(CC1)CC(CCOCc1ccccc1)CCO2 (configuration not stated) | inactive
2 | O=C(NCCc1ccc(Cl)cc1)c1nc2cccnc2n(CCc2ccccc2)c1=O | inconclusive: 8.91 µM [inhibitor, single point]
3 | O=C1[C@@H]2C[C@@H](CN2Cc2cnc3ccccc3c2)Oc2ccccc2N1Cc1ccccc1 | inactive
4 | O=C(Cn1nc2c(cc1=O)CCCCC2)N1CC=C(c2c[nH]c3ccccc23)CC1 | inactive
5 | COc1ccc(NC(=O)CSc2nc(-c3cccs3)cc(C(F)(F)F)n2)cc1Cl | inconclusive: 31.6 µM [inhibitor, partial curve, poor fit]
6 | Fc1ccc(Nc2nc(SCc3ccccc3Cl)nc3ccccc23)cc1 | inconclusive: 12.6 µM [inhibitor, single point]
7 | O=C(Cn1nc2c(cc1=O)CCCC2)N1CCN(Cc2ccccc2Cl)CC1 | inconclusive: 8.91 µM [inhibitor, partial curve, poor fit]
8 | O=C(NCc1ccc2c(c1)OCO2)C1COC2(CCCCC2)N1C(=O)c1cccc(F)c1 (configuration not stated) | inconclusive: 7.08 µM [inhibitor, single point]
9 | CCCCCCCCCC(=O)NC(CN1CCOCC1)[C@H](O)c1ccccc1 (some centres not stated) | inconclusive: 5.62 µM [inhibitor, partial curve, poor fit]
10 | CCc1nc2ccccc2n2c(-c3ccc(C)cc3)c3c(=O)n(C)c(=O)n(C)c3c12 | inconclusive: 39.8 µM [inhibitor, single point]
11 | Cn1cccc1CN1CCC2(CC1)CC(=O)N(c1ccccc1)c1ccccc1O2 | inconclusive: 39.8 µM [inhibitor, single point]
12 | CN1CCN(C(=O)N2CCC3(CCCN(C4CCCC4)C3=O)C2)CC1 (configuration not stated) | inactive
13 | CC(C)CN(C1CCOCC1)C1CN(C(=O)Nc2ccccc2)C1 | inconclusive: 10 µM [inhibitor, partial curve, poor fit]
14 | O=C(c1ccc2nc(-c3ccccc3)cn2c1)N1CCOC(C(F)(F)F)C1 (configuration not stated) | inactive
15 | Cc1ccc(-c2nc3cc(NC(=O)c4cc5ccccc5o4)ccc3o2)cc1Cl | inconclusive: 39.8 µM [inhibitor, single point]
16 | COCC(=O)NC[C@H]1CCN(Cc2ccccn2)C[C@H]1N(C)C | inconclusive: 39.8 µM [inhibitor, single point]
17 | COc1ccc(C(=O)Nc2cccc(-c3cn4ccsc4n3)c2)c(OC)c1 | inconclusive: 39.8 µM [inhibitor, single point]
18 | Cc1ccc(C(=O)N2CCCN(S(C)(=O)=O)C(c3ccccc3)CC(=O)NCC2)s1 (configuration not stated) | inconclusive: 39.8 µM [inhibitor, single point]
19 | Cc1c(C(=O)N(C)C)sc2c1c(=O)n(-c1ccc(Cl)c(Cl)c1)c(=O)n2CC(=O)C(C)(C)C | inconclusive: 0.178 µM [inhibitor, partial curve, poor fit]
20 | CC(C)(C)C1CCC2(CC1)NC(=O)N(CC(=O)N1CCN(c3ccccc3F)CC1)C2=O (configuration not stated) | inconclusive: 28.2 µM [inhibitor, single point]
21 | O=C(C1CCCN(Cc2cccc(-c3ccsc3)c2)C1)N1CCC(Cc2ccccc2)CC1 (configuration not stated) | inconclusive: 7.94 µM [inhibitor, full curve, poor fit]

Row | Compound | Potency
22 | CCCN1CCN(C(=O)c2cc(CN(C)Cc3ccccc3)on2)CC1 | inconclusive: 3.16 µM [inhibitor, full curve]
23 | COc1cccc(CNC(=O)[C@@]23CCCC[C@H]2N(CCc2ccccc2)C(=O)CC3)c1OC | inactive
24 | O=C(CCCCCCC(=O)Nc1ccc([C@H]2O[C@@H](CSc3nc(-c4ccccc4)c(-c4ccccc4)o3)C[C@@H](c3ccc(CO)cc3)O2)cc1)NO | inconclusive: 0.541 µM [inhibitor, full curve, poor fit]
25 | O=C(NCCOc1ccccc1)c1cnc2n1CCN(Cc1cccs1)CC2 | inconclusive: 3.98 µM [inhibitor, partial curve, poor fit]
26 | CC(CCn1cccn1)NC(=O)c1csc2nc(-c3ccc(C(F)(F)F)cc3)cn12 (configuration not stated) | inactive
27 | CCc1nc(-c2c3n(c(=O)n(CC(=O)NCc4ccc(OC)cc4)c2=O)CCCC3)no1 | inconclusive: 25.1 µM [inhibitor, single point]
28 | CC(C)C[C@@H]1N[C@H](C(=O)N2CCOCC2)Cc2c[nH]c3cccc1c23 | inconclusive: 20 µM [inhibitor, partial curve, poor fit]
29 | CC1=C[C@@H](CNC(=O)C(C)(C)C)[C@H](C(C)C)C[C@H]1Cc1nnc(-c2ccncc2)o1 | inactive
30 | COc1ccc(-c2noc(-c3cccn3CC(=O)N3CCC(C)CC3)n2)cc1F | inactive
31 | Cc1cccc(NC(=O)Cn2c(N3CCc4ccccc4C3)nc(C)cc2=O)c1 | inconclusive: 39.8 µM [inhibitor, single point]
32 | COc1ccc(CN2Cc3[nH]cnc3C[C@H]2C(=O)NCc2ccc(Cl)cc2)c2ccccc12 | inconclusive: 39.8 µM [inhibitor, single point]
33 | COc1ccc(C(=O)N2CCOCC3(CN(Cc4cccc(C#N)c4)C3)C2)cc1OC | inactive
34 | COc1cccc(CNC(=O)C2CCN(S(=O)(=O)c3c(C)noc3/C=C/c3cccs3)CC2)c1 | inconclusive: 20 µM [inhibitor, single point]
35 | O=C1CCCCC(C(=O)NCc2ccc3c(c2)OCO3)N1 (configuration not stated) | inconclusive: 1.12 µM [inhibitor, partial curve, poor fit]
36 | Cc1noc(C)c1-c1cc2cc(C(C)C)oc2c(NCCN(C)C)n1 | inactive
37 | COc1ccc(C)cc1NS(=O)(=O)c1cnc(N)nc1 | inconclusive: 25.1 µM [inhibitor, partial curve, poor fit]
38 | O=C(c1cc2ccc3cccnc3c2[nH]1)N1CCCCC1 | inconclusive: 6.31 µM [inhibitor, full curve, poor fit]
39 | COc1ccc(-c2ccnc3nc(Cc4ccc(F)cc4)nn23)c(F)c1 | inactive
40 | COc1ccc(C(=O)N2CCCn3nc(C)c(-c4ccccc4Oc4ccccc4)c32)cn1 | inconclusive: 12.6 µM [inhibitor, single point]
41 | Cc1ccc(NC(=O)N2CC3CCCN3c3ccccc32)cc1Cl (configuration not stated) | inconclusive: 8.91 µM [inhibitor, partial curve, poor fit]
42 | Cc1ccccc1OC(=O)c1cc(-c2ccc3c(c2)OCCO3)on1 | inconclusive: 2.24 µM [inhibitor, partial curve, poor fit]

Row | Compound | Potency
43 | O=c1c(-c2cccc(Cl)c2)nc2cncnc2n1-c1ccccc1 | inconclusive: 25.1 µM [inhibitor, single point]
44 | O=C(Nc1ccc(Oc2ccccc2)cc1)O[C@@H]1CO[C@H]2[C@@H]1OC[C@@H]2NC(=S)Nc1ccccc1 | inconclusive: 12.6 µM [inhibitor, partial curve]
45 | CC1(C)CNC(=O)c2nc(CCN3CCCc4ccccc43)[nH]c2C1 | inactive
46 | COc1ccc(NC(=O)CCc2cc3cc(C)ccc3[nH]c2=O)c(OC)c1 | inactive
47 | COc1cccc(CN2CCCN(Cc3ccncc3)C(c3ccccc3)CC(=O)NCC2)c1 (configuration not stated) | inconclusive: 3.98 µM [inhibitor, full curve, poor fit]
48 | Cc1cccc(NC(=O)CSc2ccc(-c3sc(-c4ccccc4)nc3C)nn2)c1C | inconclusive: 2 µM [inhibitor, single point]
49 | CCCOc1ccc(-c2nonc2NC(=O)c2ccco2)cc1OCCC | inconclusive: 3.98 µM [inhibitor, single point]
50 | COc1ccc(C(=O)N2CCC(Cc3nc(-c4ccc(F)cc4)no3)CC2)c(OC)n1 | inconclusive: 2.82 µM [inhibitor, full curve, poor fit]
51 | CCCCNC(=O)C1c2ccccc2C(=O)N(Cc2ccccc2)C12CCCC2 (configuration not stated) | inconclusive: 39.8 µM [inhibitor, single point]
52 | CCc1ccc(C(=O)NC2CCN(c3cc(-c4ccc(OC)cc4)[nH]n3)CC2)cc1 | inconclusive: 39.8 µM [inhibitor, single point]
53 | O=C(NCc1ccccc1)c1cnc2n1CCN(CCCc1ccccc1)CC2 | inconclusive: 56.2 µM [inhibitor, single point]
54 | CCOC(=O)c1c(NC(=O)/C(C#N)=C/c2ccc(OC)cc2)sc2c1CCC2 | inactive
55 | CC(=O)N1Cc2ccccc2CC2(CCCN(CC3CCCC3)C2)C1 (configuration not stated) | inconclusive: 15.8 µM [inhibitor, partial curve]
56 | COc1cc(Cl)ccc1C(=O)N1CCN(c2cc(C(F)(F)F)ncn2)CC1 | inconclusive: 39.8 µM [inhibitor, single point]
57 | O=C(NCCCc1ccccc1)c1nc2sccn2c1-c1cccc(C(F)(F)F)c1 | inconclusive: 31.6 µM [inhibitor, single point]
58 | CC1=C[C@@H](CNCc2ccccn2)[C@H](C(C)C)C[C@H]1Cc1nnc(-c2ccc(N(C)C)cc2)o1 | inconclusive: 22.4 µM [inhibitor, partial curve]
59 | O=C(CCc1c[nH]c2ccccc12)N1CC2CC(C1)[C@H]1CCCC(=O)N1C2 (some centres not stated) | inconclusive: 0.708 µM [inhibitor, full curve, poor fit]
60 | Cn1c(CCNC(=O)CC2CCOCC2)nc2ccccc21 | inconclusive: 39.8 µM [inhibitor, single point]
61 | CC(=O)N1C[C@@H]2CCCN3CCC[C@@H]([C@H]23)[C@H]1CCCC(=O)NCCN1CCCCC1 | inactive
62 | COc1ccccc1CCNC(=O)Cn1ccc2cc(S(=O)(=O)N3CCCCC3)ccc21 | inconclusive: 39.8 µM [inhibitor, single point]
